From PubChem BioAssay AID1508623 (National Center for Advancing Translational Sciences (NCATS), 2021)
The campaign covered roughly 48,000 compounds. About 450 (0.94%) were called active. Another 19% or so got no clear call; they are omitted. Calls follow the shape of the dose curve; as a rule, active = well fitted inhibition curve with a large enough effect; inconclusive = small, poorly fitted or top-dose-only effect; inactive = no such curve, though single readings can be large or run the other way. This is one part of the list.

Test: Primary qHTS for Identification of Small Molecule Inhibitors of Huntingtin Promoter Activity; also: nearly all actives have a fitted effect of over 50% in size
Conditions: HEK293 HTT promoter firefly luciferase reporter (activity 0% = vehicle and -100% = no light), 24 h; series mostly up to 57.5 µM; activity change, negative = inhibition: at the top concentration
How it was run: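 Firefly luciferase readout (Dual-Glo, 10 min RT) after 24 h, 37 °C compound exposure (final up to 57.5 uM) of HEK293 reporter cells cultured 24 h beforehand; PTC124 at 50 uM final as control inhibitor; activity scaled vehicle 0%, zero RLU -100%.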

Activity change, negative = inhibition, inactive:
Cc1ccc(CNc2nc3c(c(=O)n(C)c(=O)n3C)n2Cc2ccc(Cl)cc2)cc1 6.57%, CCn1c(=O)n(-c2ccc(F)c(Cl)c2)c(=O)c2sc3ccccc3c21 -6.02%, CN(C)c1ccc(NC(=O)CSc2nc(-c3ccco3)cc(C(F)(F)F)n2)cc1 -21.6%, O=C(COc1ccccc1Cl)N(Cc1ccco1)Cc1ccco1 -13%, Cc1ccccc1C(=O)Oc1cc(-c2ccc3c(c2)OCO3)cc(=O)c2c(C)oc(C)c12 -29.6%, Cc1ccc(Cl)cc1NC(=O)c1cc2c(=O)n3cccc(C)c3nc2n1C 0.714%, Cc1ccc(S(=O)(=O)c2cnc(SCC(=O)Nc3ccccc3C(F)(F)F)[nH]c2=O)cc1C -9.06%, O=C(NCc1ccc(F)cc1)c1cnc(N2CCOCC2)c2ccccc12 -12.3%, Cc1cc(C)cc(NC(=O)C2CCCN(c3cnccn3)C2)c1 (stereo not drawn) -0.681%, CCOc1cc(CNC(=O)c2ccc3c(c2)nc2n3CCCCC2)ccc1OC -12.5%, COc1ccc(-n2c(=O)c3c4c(sc3n(CC(=O)N3CCCCC3C)c2=O)CCC4)c(OC)c1 (stereo not drawn) -5.54%, Cc1ccc(N2CCN(C(=O)c3ccc(Nc4nc5ccccc5n5nnnc45)cc3)CC2)c(C)c1 3.85%, COc1ccccc1N1CCN(S(=O)(=O)c2c(C)sc3ncn(CC(=O)Nc4ccc(C(C)C)cc4)c(=O)c23)CC1 -11.3%, CC1CCN(CCCNC(=O)CN2C(=O)CSc3ccc(S(=O)(=O)N4CCC(C)CC4)cc32)CC1 -15.3%, O=C(NC1CCCC1)c1cnn(-c2ccc(F)cc2F)c1C1CCNCC1 -7.95%, Cc1ccc(S(=O)(=O)N2CCN(Cc3ccccc3)CC2)c(C)c1NS(C)(=O)=O -24.9%, Cc1cccc(Cn2c(=O)n(CCCCC(=O)NCc3ccc4c(c3)OCO4)c(=O)c3ccccc32)c1 -7.41%, c1cc(-c2cnn3cc(-c4ccc(OCCN5CCCCC5)cc4)cnc23)ccn1 -22.2%, CCSc1nnc2c(n1)OC(c1ccc(OC)cc1OC)N(C(C)=O)c1ccccc1-2 (stereo not drawn) -20.6%, CCC(=O)O[C@]1(C(=O)COC)[C@@H](C)C[C@H]2[C@@H]3CCC4=CC(=O)C=C[C@]4(C)C3(F)[C@@H](O)C[C@@]21C (stereo partly drawn) -0.813%, Cc1ccc(C2=NC(c3ccc(F)cc3)=Nc3ccc(C)cc3N2)cc1 2.71%, COc1ccccc1OCCCCn1c(C2CC(=O)N(c3ccccc3Cl)C2)nc2ccccc21 (stereo not drawn) -18%, Cc1ccc(NC(=O)/C(C#N)=C/c2ccccc2Cl)cc1C 2.18%, CCN(CC)CCNC(=O)CN1C(=O)c2cccnc2Oc2ccc(C)cc21 4.07%, COc1ccc(CCNC(=O)Cn2c(=O)n(-c3ccc(OC)c(OC)c3)c(=O)c3ccccc32)cc1OC -14.5%, COc1ccccc1OCC1CNC(=O)O1 (stereo not drawn) 14.9%, Cc1ccc(NC(=O)CN2c3ccccc3S(=O)(=O)c3ccccc32)cc1F -22.8%, CN(C)c1nc(Cc2ccc(NC(=O)c3ccc4ccccc4c3)cc2)nc(Cl)c1CC(=O)O 3.86%, Cc1nc(-c2ccc(S(=O)(=O)N3CCN(c4cccc(Cl)c4)CC3)cc2)co1 -24.4%, COc1cc(NC(=O)Cn2c(=O)n(CC(=O)NCCc3ccc(OC)c(OC)c3)c(=O)c3sccc32)cc(OC)c1 -6.6%, CC(=O)Nc1ccc(S(=O)(=O)NCC2CCC(C(=O)NCc3ccccc3Cl)CC2)cc1 (stereo not drawn) -13%, CSc1ccc(CNC(=O)Cc2csc3ccccc23)cc1 2.52%, CC(=O)NCCNc1nc2c(-c3cccc(C)c3)nnn2c2ccc(Cl)cc12 2.76%, COc1cccc(Nc2sc(C(=O)c3ccc4c(c3)OCO4)c(N)c2S(=O)(=O)c2ccccc2)c1 -28.2%, COc1ccc(N2CC(NC(=O)Cc3cccs3)CC2=O)cc1 (stereo not drawn) -1.19%, CCn1c(C)c(C)c2cc(C(=O)NCc3ccc(N(C)C)cc3)ccc21 -7.2%, COc1ccc(CNC(=O)CN(c2cc(C(F)(F)F)ccc2Cl)S(C)(=O)=O)cc1 -11%, O=C1[C@H](CC[C@H](O)c2ccc(F)cc2)[C@@H](c2ccc(O)cc2)N1c1ccc(F)cc1 -11.3%, Cc1ccc(C(=O)c2oc3ccccc3c2NC(=O)c2cc(-c3ccc(Cl)cc3)on2)cc1 -13.1%, COc1ccc(Cl)cc1NC(=O)Cn1ncc2c3ccccc3n(Cc3ccccc3)c2c1=O -4.66%, Cc1ccc(OCCCCn2cnc3ccccc32)cc1 -13.1%, CCN(CC)S(=O)(=O)c1ccc2c(c1)nc(CN(C)C(=O)Nc1ccc(F)cc1)n2C 7.19%, COc1cc(Cl)c(C)cc1NC(=O)CCc1c(C)nc2c3cccnc3nn2c1C 0.172%, COc1ccc(CNC(=O)CSc2n[nH]c(-c3ccc(F)cc3)n2)cc1 3.62%, CS(=O)(=O)c1ccccc1-c1nnc(NC(=O)c2ccc3c(c2)OCCO3)o1 -9.87%, Cc1ccc(C)c(CN2C(=O)c3ccccc3S(=O)(=O)c3ccc(C(=O)Nc4cc(F)ccc4F)cc32)c1 -19.7%, COc1ccc(NC(=O)c2nnn(CC(=O)Nc3c(C)cc(C)cc3C)c2N)cc1OC -5.71%, COc1ccc(CNC(=O)CN(c2ccc(C)cc2)S(=O)(=O)c2c(C)noc2C)cc1 -12.2%, COc1ccc(CNC(=O)C(CCSC)NS(=O)(=O)c2ccc3c(c2)oc(=O)n3C)cc1 (stereo not drawn) -0.965%, Cc1cc(C)cc(NC(=O)CSc2nc3c([nH]c4ccccc43)c(=O)n2-c2ccc(F)cc2)c1 -27.8%, CNC(=O)C(=O)NCC(c1ccc2c(c1)OCO2)N1CCOCC1 (stereo not drawn) -14%, CCOc1ccc(-c2cc(NC(=O)c3cccc(Cl)c3)c(C(=O)OC)s2)cc1 24.8%, CC1=C(C(=O)Nc2ccccc2)C(c2ccc(C)cc2)n2nc(SCc3ccccc3C)nc2N1 (stereo not drawn) 8.12%, CCCOc1ccc(C(=O)Nc2nonc2-c2ccc(OCC)cc2)cc1 -2.57%, O=C(c1ccc(F)cc1F)N1CCC(c2nc(-c3ccc(S(=O)(=O)N4CCCC4)cc3)no2)CC1 -2.38%, CCOC(=O)c1ccc(NC(=O)c2cn(-c3ccccc3)nc2-c2ccc(C)cc2)cc1 0.463%, CCCc1ccc(S(=O)(=O)N2CCC(c3nnnn3-c3ccc(OC)cc3)CC2)cc1 -7.22%, Cc1oc2cc3oc(=O)c(CC(=O)N4CCCCC4)c(C)c3cc2c1C -4.66%, N#CC1=C2SCN(C3CCCCC3)CN2C(=O)CC1c1ccc(Br)cc1 (stereo not drawn) -22%, CCOc1cc(C#N)c(NC(=O)c2ccc(OC)c(S(=O)(=O)N3CCN(c4ccccc4)CC3)c2)cc1OCC 12.1%, CN1CCOC(c2ccccc2)c2ccccc2C1 (stereo not drawn) 0.834%, COc1ccc(CNC(=O)Cn2c(=O)c3cccn3c3ccccc32)cc1 -9.16%, CCc1nnc2c(N3CCN(c4cccc(C(F)(F)F)c4)CC3)nc3ccccc3n12 0.21%, COc1ccc(N(CC(=O)N2CCc3ccccc3C2)S(=O)(=O)c2ccc(C)cc2)cc1Cl -13.1%, O=C(Cn1c(=O)n(Cc2ccco2)c(=O)c2oc3ccccc3c21)Nc1ccc(F)c(Cl)c1 -17.9%, CN1CCN(CCCNC(=O)c2cnn(-c3ccc(F)cc3)c2-n2cccc2)CC1 -23.6%, CNc1ccc(-c2nc(-c3ccccc3C)no2)cc1[N+](=O)[O-] 49.4%, COc1ccc(C2=C(C(C)=O)Sc3nnc(-c4ccc(Cl)cc4)n3N2C(C)=O)cc1OC -16.5%, CCCn1c2ccccc2c2cnn(CC(=O)NCCCN3CCCCC3)c(=O)c21 -2.03%, CCOc1ccc(NC(=O)c2sc3nc4c(c(-c5ccccc5)c3c2N)C(=O)CC(C)(C)C4)cc1 -20.3%, Cc1ccc(S(=O)(=O)c2cnc(SCC(=O)Nc3ccc4c(c3)OCCO4)[nH]c2=O)cc1Cl -18%, CCOc1cc(C2C(C(=O)OC)=C(C)NC3=C2C(=O)c2ccccc23)ccc1OC (stereo not drawn) -17%, CCc1cc(-c2n[nH]c(C)c2-c2ccc3c(c2)OCCO3)c(O)cc1O -27.6%, Cc1ccccc1-c1ccnc2[nH]n(-c3ccccc3)c(=O)c12 -30.2%, O=S(=O)(NCC(c1ccco1)N1CCOCC1)c1ccc(Br)cc1 (stereo not drawn) -17.2%, COc1ccc(OC)c(CN2CCN(S(=O)(=O)c3ccccc3)CC2)c1 -19.4%, Cc1ccc2oc(C(=O)N(Cc3ccc(N(C)C)cc3)CC3CCCO3)c(C)c2c1 (stereo not drawn) -15.9%, CCOC(=O)c1c(NC(=O)CSc2cn(CCNC(=O)c3cccc(C(F)(F)F)c3)c3ccccc23)sc2c1CCC2 -5.87%, CC(NC(=O)C1CCN(S(=O)(=O)c2ccc(F)cc2)CC1)c1ccccc1 (stereo not drawn) -14.8%, CN1CCC(=C2c3ccccc3CCc3sccc32)CC1, COc1ccc(-c2cc(C(=O)Oc3ccc(C)cc3)c3ccccc3n2)cc1 22%, CC(C)c1ccc(NC(=O)CSC2=Nc3ccccc3C3=NC(CC(=O)NCc4cccs4)C(=O)N23)cc1 (stereo not drawn) -16%, COc1cc(NC(=O)CSc2ncc3c(n2)-c2ccc(Cl)cc2N(Cc2ccccc2)S3(=O)=O)cc(OC)c1 -13.8%, O=C(Cn1ncc2c3ccccc3n(Cc3ccc(Cl)cc3)c2c1=O)NCCC1=CCCCC1 -10.7%, CN(C)CCNC(=O)C1CCN(c2ncnc3c2nc2n3CCCCC2)CC1 -15.3%, COc1ccc(CNC(=O)c2cc3cc4ccc(C)cc4nc3o2)cc1 4.4%, O=C(Cc1ccccc1)Nc1c(C(=O)c2ccccc2)oc2ccccc12 6.25%, CCc1ccc(C(=O)COC(=O)C(Cc2c[nH]c3ccccc23)NC(=O)c2ccc(CC)cc2)cc1 (stereo not drawn) -10.4%, Cc1ccc(NC(=O)CSc2nnc(-c3nnn(-c4ccc(F)cc4)c3C)o2)cc1Br -2.99%, Cc1nc(-c2cccc(F)c2)sc1CCNC(=O)c1c(F)cccc1Cl -36.8%, COc1cccc(N2CCN(C(=O)c3cc4c(s3)-c3c(C)cccc3OC4)CC2)c1 -2.41%, CCCCn1c(=NC(=O)C(C)(C)Oc2ccc(Cl)cc2)c(C(=O)OCC)cc2c(=O)n3ccccc3nc21 -8.7%, COC(=O)Nc1nc2ccc(C(=O)c3ccc(F)cc3)cc2[nH]1 -14.5%
